The list shows a part of the results.

In this experiment the target is T1, RBFOX1 RRM (Homo sapiens) (UniProt Q9NWB1).
T1 sequence: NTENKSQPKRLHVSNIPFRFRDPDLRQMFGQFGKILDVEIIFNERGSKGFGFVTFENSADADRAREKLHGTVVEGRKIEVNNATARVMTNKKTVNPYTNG
In words: EMSA. To be noted: HiTS-Eq, 1 nM pool, 10 min; buffer printed only for the single-RNA assays: 10 mM Tris pH 7.5, 150 mM NaCl, 3.4 mM EDTA, 0.001% NP-40, 30 C. (Mobility shift assays separate free from complexed probe on a gel.)
In the case of “GGGAGACCGGAAUUCAGAUUGUCCUCCCUAAUUAAAUCCCGUCGUAGCCACCA / CAATCTGAATTCCGGTCTCCC / TGGTGGCTACGACGGGATT”, the binding signal (KA relative to UGCAUGU) worked out at 0.00677.
The same measure for “GGGAGACCGGAAUUCAGAUUGUCCUCUCCCCUUAAAUCCCGUCGUAGCCACCA / CAATCTGAATTCCGGTCTCCC / TGGTGGCTACGACGGGATT”: 0.0106.
The same measure for “GGGAGACCGGAAUUCAGAUUGUCCGAUCCCCUUAAAUCCCGUCGUAGCCACCA / CAATCTGAATTCCGGTCTCCC / TGGTGGCTACGACGGGATT”: 0.00406.
Next, “GGGAGACCGGAAUUCAGAUUGUCCUCCCAACUUAAAUCCCGUCGUAGCCACCA / CAATCTGAATTCCGGTCTCCC / TGGTGGCTACGACGGGATT”: 0.0025; “GGGAGACCGGAAUUCAGAUUGUCCGACCUCCUUAAAUCCCGUCGUAGCCACCA / CAATCTGAATTCCGGTCTCCC / TGGTGGCTACGACGGGATT”: 0.0129.
On to “GGGAGACCGGAAUUCAGAUUGUCCCCCCCGCUUAAAUCCCGUCGUAGCCACCA / CAATCTGAATTCCGGTCTCCC / TGGTGGCTACGACGGGATT”, for which the binding signal (KA relative to UGCAUGU) turned out to be 0.000216.
Sequence “GGGAGACCGGAAUUCAGAUUGUCCGGUCCAAUUAAAUCCCGUCGUAGCCACCA / CAATCTGAATTCCGGTCTCCC / TGGTGGCTACGACGGGATT” showed a binding signal (KA relative to UGCAUGU) of 0.00374.
“GGGAGACCGGAAUUCAGAUUGUCCUCCCCCCUUAAAUCCCGUCGUAGCCACCA / CAATCTGAATTCCGGTCTCCC / TGGTGGCTACGACGGGATT”: the binding signal (KA relative to UGCAUGU) was found to be 0.00206.
For the sequence “GGGAGACCGGAAUUCAGAUUGUCCGGUCGACUUAAAUCCCGUCGUAGCCACCA / CAATCTGAATTCCGGTCTCCC / TGGTGGCTACGACGGGATT”, the binding signal (KA relative to UGCAUGU) turned out to be 0.0159.
On to “GGGAGACCGGAAUUCAGAUUGUCCCCCUAUCUUAAAUCCCGUCGUAGCCACCA / CAATCTGAATTCCGGTCTCCC / TGGTGGCTACGACGGGATT”, for which the binding signal (KA relative to UGCAUGU) was found to be 0.00304.
For “GGGAGACCGGAAUUCAGAUUGUCCCCCACCAUUAAAUCCCGUCGUAGCCACCA / CAATCTGAATTCCGGTCTCCC / TGGTGGCTACGACGGGATT”, the binding signal (KA relative to UGCAUGU) is 0.012.
“GGGAGACCGGAAUUCAGAUUGUCCGGUCUAGUUAAAUCCCGUCGUAGCCACCA / CAATCTGAATTCCGGTCTCCC / TGGTGGCTACGACGGGATT” came in with a binding signal (KA relative to UGCAUGU) of 0.00915.
The same measure for “GGGAGACCGGAAUUCAGAUUGUCCCCCGGUCUUAAAUCCCGUCGUAGCCACCA / CAATCTGAATTCCGGTCTCCC / TGGTGGCTACGACGGGATT”: 0.0435; for “GGGAGACCGGAAUUCAGAUUGUCCGGCACCCUUAAAUCCCGUCGUAGCCACCA / CAATCTGAATTCCGGTCTCCC / TGGTGGCTACGACGGGATT”: 0.00858; for “GGGAGACCGGAAUUCAGAUUGUCCCCCAACGUUAAAUCCCGUCGUAGCCACCA / CAATCTGAATTCCGGTCTCCC / TGGTGGCTACGACGGGATT”: 0.00248.
Sequence “GGGAGACCGGAAUUCAGAUUGUCCCCCUACAUUAAAUCCCGUCGUAGCCACCA / CAATCTGAATTCCGGTCTCCC / TGGTGGCTACGACGGGATT” gave a binding signal (KA relative to UGCAUGU) of 0.00906.
The same measure for “GGGAGACCGGAAUUCAGAUUGUCCGGUCCUAUUAAAUCCCGUCGUAGCCACCA / CAATCTGAATTCCGGTCTCCC / TGGTGGCTACGACGGGATT”: 0.00799.
Next, “GGGAGACCGGAAUUCAGAUUGUCCGGGUCUCUUAAAUCCCGUCGUAGCCACCA / CAATCTGAATTCCGGTCTCCC / TGGTGGCTACGACGGGATT”: 0.0231; “GGGAGACCGGAAUUCAGAUUGUCCAACUCCCUUAAAUCCCGUCGUAGCCACCA / CAATCTGAATTCCGGTCTCCC / TGGTGGCTACGACGGGATT”: 0.00265; “GGGAGACCGGAAUUCAGAUUGUCCAUCUCCCUUAAAUCCCGUCGUAGCCACCA / CAATCTGAATTCCGGTCTCCC / TGGTGGCTACGACGGGATT”: 0.00326.
For the sequence “GGGAGACCGGAAUUCAGAUUGUCCGGUCAUCUUAAAUCCCGUCGUAGCCACCA / CAATCTGAATTCCGGTCTCCC / TGGTGGCTACGACGGGATT”, the binding signal (KA relative to UGCAUGU) worked out at 0.00192.
Next, “GGGAGACCGGAAUUCAGAUUGUCCCCCGAACUUAAAUCCCGUCGUAGCCACCA / CAATCTGAATTCCGGTCTCCC / TGGTGGCTACGACGGGATT”: 0.00073; “GGGAGACCGGAAUUCAGAUUGUCCACUCCCCUUAAAUCCCGUCGUAGCCACCA / CAATCTGAATTCCGGTCTCCC / TGGTGGCTACGACGGGATT”: 0.00134.
The same measure for “GGGAGACCGGAAUUCAGAUUGUCCGGCCCCGUUAAAUCCCGUCGUAGCCACCA / CAATCTGAATTCCGGTCTCCC / TGGTGGCTACGACGGGATT”: 0.00868.

The values are drawn from PMC9911399.
